Out of some 110,000 compounds screened, about 230 (0.21%) showed an effect of 50% or more. This is one part of the list.
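Further: 30 min substrate incubation versus DMSO and 10 µM JCP410 controls.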

The target of this assay is DPAP1 (Plasmodium falciparum, UniProt Q8IIJ9). Kind of assay: primary screen, percent inhibition; read by cleavage of a fluorogenic dipeptide substrate; higher = more effect of the substance. On the set-up: species or system P. falciparum D10 trophozoite lysates; single well.
Chain of DPAP1 (Q8IIJ9 whole entry, looked up): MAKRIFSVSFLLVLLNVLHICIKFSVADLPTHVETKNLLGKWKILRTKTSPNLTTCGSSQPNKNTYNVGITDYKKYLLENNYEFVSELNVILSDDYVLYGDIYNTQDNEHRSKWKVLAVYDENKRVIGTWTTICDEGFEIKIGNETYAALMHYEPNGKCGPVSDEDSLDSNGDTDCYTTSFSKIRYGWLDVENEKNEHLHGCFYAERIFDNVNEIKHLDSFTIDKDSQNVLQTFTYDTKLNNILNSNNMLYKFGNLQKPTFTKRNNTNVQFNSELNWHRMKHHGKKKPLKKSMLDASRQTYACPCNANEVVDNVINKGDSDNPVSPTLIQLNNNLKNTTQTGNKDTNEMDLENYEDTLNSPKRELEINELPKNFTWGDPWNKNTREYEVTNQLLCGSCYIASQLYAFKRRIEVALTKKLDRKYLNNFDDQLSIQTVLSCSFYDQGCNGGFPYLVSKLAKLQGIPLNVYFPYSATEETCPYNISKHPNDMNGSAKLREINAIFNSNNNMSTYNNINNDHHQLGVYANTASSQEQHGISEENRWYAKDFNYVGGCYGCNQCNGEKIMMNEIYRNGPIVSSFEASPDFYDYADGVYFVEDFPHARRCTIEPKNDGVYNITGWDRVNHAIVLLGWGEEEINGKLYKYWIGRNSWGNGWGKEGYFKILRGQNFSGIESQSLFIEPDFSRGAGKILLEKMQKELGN
With `CC(/C=C1\N=C(c2ccc(F)cc2)OC1=O)=C\c1ccc2c(c1)OCO2`, the “% Inhibition @ 10 uM” value was 2.92%. The figure for `COc1ccc(-c2noc(CNC(=O)COc3ccc(C(C)(C)C)cc3Br)n2)cc1` is -2.99%; for `CCOc1ccccc1/C=C(\C#N)c1nc(-c2ccccc2)cs1` it is 1.08%.

As to `COC(=O)c1cc(S(=O)(=O)N2CCC(N3CCCCC3)CC2)c[nH]1`, the “% Inhibition @ 10 uM” value is reported as 5.94%. As for `CC(C)=CCC/C(C)=C/CN1CCCN(C)CC1`, the “% Inhibition @ 10 uM” value was -7.91%.

On to `Cn1c(-c2nonc2NC(=O)CSc2nc3ccccc3o2)nc2ccccc21`, for which the “% Inhibition @ 10 uM” value was -1.84%. The figure for `COc1ccc(N2C(=O)c3ccccc3NC2c2cc(OC)c(OC)c(OC)c2)cc1` (stereo not shown) is -2.85%. The figure for `COCc1cc(C)nc2sc(C(=O)c3ccc(Cl)cc3)c(N)c12` is 0.674%; for `COc1cc2nc3c(O)n(CCN4CCN(Cc5ccccc5)CC4)cnc-3c2cc1OC` it is -7.27%.

In the case of `CC1=C(C(=O)Nc2cc(C)ccn2)C(c2cccc(Cl)c2)C2=C(O)CCCC2=N1` (stereo not shown), the “% Inhibition @ 10 uM” value is 5.9%. The figure for `OCCC1CCCCN1Cc1cccc(Cl)c1` (stereo not shown) is -4.58%; for `O=C(O)c1ncn(-c2ccccc2)n1` it is 5.43%; for `Cc1ccc(-c2ccccc2)c(Oc2ccc(C#N)c(C#N)c2)c1` it is -3.55%.

With `CCCOc1ccccc1C1C2=C(O)CCCC2=NC(C)=C1C(=O)OC` (stereo not shown), the “% Inhibition @ 10 uM” value amounted to 2.45%. The figure for `CCOc1cccc(C(=O)Nc2cnn(Cc3ccccc3)c2)c1` is -1.32%.

As for `O=C(NCc1ccccc1)C(Cc1ccccc1)N1C(=O)C2C3C=CC(C3)C2C1=O` (stereo not shown), the “% Inhibition @ 10 uM” value worked out at 2.54%.

As to `CCOc1ccc2[nH]c(C(=O)O)c(CCN)c2c1`, the “% Inhibition @ 10 uM” value came out at 4.54%. As to `CN1C(=O)NC(=O)/C(=C\c2c[nH]nc2-c2ccc(F)cc2)C1=O`, the “% Inhibition @ 10 uM” value is reported as -0.834%. The figure for `CC(C)C[C@H](NC(=O)c1ccc(CN)cc1)C(=O)N[C@@H](CCc1ccccc1)C(=O)COCc1ccccc1` is -3.97%; for `O=C(NCCc1csc2nc(-c3ccccc3)nn12)c1ccco1` it is -1.71%. The figure for `CC1(C)CC(=O)C2=C(C1)c1c(ccc3ccccc13)NC2c1cccc([N+](=O)[O-])c1` (stereo not shown) is 3.06%; for `Cc1ccc(CNC(=O)CN(Cc2ccccc2)S(C)(=O)=O)cc1` it is -1.92%. The figure for `CC1CN(c2nc3c(c(=O)n(Cc4ccccc4Cl)c(=O)n3C)n2C)CC(C)O1` (stereo not shown) is -3.47%. Turning to `CN(CCCNC(=O)c1cc2c(s1)-c1ccccc1OC2)Cc1ccccc1`, the “% Inhibition @ 10 uM” value turned out to be 0.291%.

`Cc1ccc(-c2cn3c(n2)sc2cc(C(=O)N4CCC(C(N)=O)CC4)ccc23)cc1`: the “% Inhibition @ 10 uM” value is recorded as -0.901%. Consider `Cc1cccc(-c2cc(C(=O)Nc3nc(C)c(C(=O)N(C)C)s3)c3ccccc3n2)c1`, for which the “% Inhibition @ 10 uM” value was -2.9%. Turning to `Cc1cc(C(=O)NCc2cccs2)c2c(C)nn(-c3ccccc3Cl)c2n1`, the “% Inhibition @ 10 uM” value is recorded as 3.75%.

Consider `Cc1cccc(NC(=O)c2ccc(COc3cccc4ccccc34)o2)n1`, for which the “% Inhibition @ 10 uM” value came to 0.413%. The figure for `N#CC1=C(N)Oc2[nH]nc(-c3cccs3)c2C1c1ccncc1` (stereo not shown) is 3.92%; for `Cc1c(Cl)cccc1-n1nc(C)c2c(C(=O)O)cc(C3CC3)nc21` it is 6.65%; for `CCC(C)NC(=O)COc1ccc(Br)cc1C` (stereo not shown) it is -3.83%. The figure for `CCN1C=C(Cc2ccccc2C)C2=C(C1)C(c1ccccc1C)C(C#N)=C(N)O2` (stereo not shown) is 2.32%; for `COCCO/C(O)=C1\C(C)=NC2=C(C(=O)CCC2)C1c1ccc(OCc2ccccc2)c(OC)c1` (stereo not shown) it is -0.769%; for `COc1ccc(C(=O)N[C@@H](Cc2ccc([N+](=O)[O-])cc2)C(=O)NCC#N)cc1` it is -5.64%.

On to `COc1ccc(-c2noc(CN(C(=O)CC(C)(C)C)C(C)C)n2)cc1`, for which the “% Inhibition @ 10 uM” value was -8.22%. As to `CCc1cccc(C(=O)N[C@@H](CC(C)C)C(=O)NCC#N)c1`, the “% Inhibition @ 10 uM” value amounted to 3.19%. The figure for `CC(C)(C)/N=C/c1cc(-c2ccccc2)sc1S` is 24.6%. The figure for `CC1CN(C(=O)Cn2cc(SCC(=O)NCc3ccccc3Cl)c3ccccc32)CC(C)O1` (stereo not shown) is -1.11%; for `CCCN1C(=O)S/C(=C\c2cccc(OC)c2OC(C)C)C1=O` it is 1.28%; for `COc1ccc(-c2cn3ccccc3n2)cc1Br` it is 3.8%. The figure for `Cc1ccc(C)c(CN(C)C2CCN(C)CC2)c1` is -1.86%; for `Cn1c(=O)c2c(nc(N3CCCCC3)n2C)n(C)c1=O` it is -6.83%. On to `Cc1cc(O)n(-c2ccc(S(=O)(=O)O)cc2)n1`, for which the “% Inhibition @ 10 uM” value was -5.51%. The figure for `C=C(C)CNC(=S)Nc1nccs1` is 0.774%; for `COc1cc(/C=C2\C(=N)N3N=C(S(C)(=O)=O)SC3=NC2=O)cc(OC)c1OC` it is -1.58%; for `N#CCCN1CCN(S(=O)(=O)c2ccc(S(=O)(=O)N3CCOCC3)cc2)CC1` it is -1.82%. The figure for `Cc1c(CCC(=O)NCCc2ccc(F)cc2)c(=O)oc2c(C)c(O)ccc12` is -4.39%; for `Cc1ccccc1NC(=O)c1cccc(S(=O)(=O)Nc2cccc([N+](=O)[O-])c2)c1` it is -1.74%.

With `Nc1ccc(Oc2ccc(C(=O)O)cc2)cc1`, the “% Inhibition @ 10 uM” value came to 2.94%. The figure for `CSCCOC(=O)C1=C(C)NC(=O)NC1c1cccc(Br)c1` (stereo not shown) is -0.582%. The figure for `COc1ccccc1C(=O)NC1CCN(c2ncccn2)CC1` is -2.88%; for `Nc1cc(=O)n2c(C(=O)Nc3ccccc3)nn(-c3ccccc3)c2n1` it is -5.26%.

`COc1ccc(C(=O)N2CCN(Cc3ccc(Cl)cc3)CC2)cc1`: the “% Inhibition @ 10 uM” value is -1.88%. `Cc1c(-c2ccccc2)nc2ccccc2c1C(=O)NC1CC1`: the “% Inhibition @ 10 uM” value worked out at 6.37%. The figure for `Cc1ccccc1NC(=O)c1ccc(S(=O)(=O)N2CCOCC2)c(C)c1` is 2.33%; for `CC(NC(=O)/C(=C/c1ccccc1)NC(=O)c1cccc(Br)c1)C(=O)O` (stereo not shown) it is 3.89%; for `COC(=O)c1ccc(N2C(=O)c3cccc(Br)c3C2=O)cc1O` it is -0.261%. The figure for `COc1ccc(S(=O)(=O)Nc2cccc(Cl)c2Cl)cc1OC` is -1.96%; for `C=CCOc1ccc(/C=C2/C(=N)N3C(=NC2=O)SN=C3S(=O)(=O)CC)cc1OC` it is 1.85%; for `CCc1ccc(CN(C(=O)c2cc(=O)c3cc(C)cc(C)c3o2)C2CCS(=O)(=O)C2)cc1` (stereo not shown) it is -1.47%. The figure for `N=C1/C(=C\c2coc3ccccc3c2=O)C(=O)N=C2SC(C3CCCCC3)=NN12` is -2.19%.

Source of the values: PMC6919601, “Identification of Plasmodium dipeptidyl aminopeptidase allosteric inhibitors by high throughput screening” (PLoS ONE, 2019).
